About 1,700 (3.3%) of roughly 52,000 compounds were called active. Cut-off read from the data, not from the text of the source: active = survival mostly below about 52% (no sharp cut-off); inactive = mostly above about 56%. The list shows a part of the results.

The assay has as its system Wild type. Description: growth inhibition of S. aureus wild type versus tarO mutant, primary screen, teichoic acid synthesis inhibitors, RN4220, OD600 (AID 463173). The conditions noted are these: S. aureus RN4220 wild type/DeltatarO growth, OD600, 18 h, hits give low values, screened at 18.75 µg/mL (by protocol).
On to `COc1ccccc1CNC(=O)c1nn(-c2ccc(C)cc2)c(=O)c2c1c1ccccc1n2C`, for which the survival is inactive: 128%.
Turning to `O=C(NCc1ccccc1)c1cccc(NC(=O)N2CCSc3ncccc32)c1`, the survival was inactive: 59%.
On to `CCN(CC)c1nc2c(S(=O)(=O)c3ccc(C)cc3)nnn2c2ccsc12`, for which the survival was inactive: 84%.
The figure for `COc1ccccc1NC(=O)CSc1oc(-c2cccs2)nc1S(=O)(=O)c1ccc(C)cc1` is inactive: 62%; for `O=C(CN1C(=O)c2cccc3cccc1c23)NC1CCCC1` it is inactive: 112%.
On to `O=C(Nc1nnc(S(=O)(=O)N2CCCC2)s1)c1ccccc1Cl`, for which the survival is inactive: 96%.
The figure for `CCn1ccc2cc(S(=O)(=O)N3CCC(C(=O)NCc4ccc(OC(C)C)cc4)CC3)ccc21` is inactive: 69%; for `CCCSc1nnc2c(n1)OC(CC)N(C(C)=O)c1ccccc1-2` (stereo not drawn) it is inactive: 82%.
As for `O=C(CN1C(=O)COc2ccc(S(=O)(=O)N3CCCCC3)cc21)NCCc1ccc(Cl)cc1`, the survival was inactive: 82%.
`COc1ccc(-c2nc3ccc(C(=O)NCc4ccccc4)cc3nc2-c2ccc(OC)cc2)cc1`: the survival was inactive: 72%.
The figure for `Cc1ccccc1NC(=O)c1ccccc1NC(=O)c1ccccc1F` is inactive: 89%; for `COC(=O)COc1ccc(Oc2nc(NC(C)(C)C)nc(N3CCOCC3)n2)nn1` it is inactive: 61%; for `CCOc1ccccc1CNC(=O)Cn1nc(C)c2nn(-c3ccc(Cl)cc3)c(C)c2c1=O` it is inactive: 78%.
Regarding `COc1ccc(Cc2nc3c4cnn(-c5ccccc5Br)c4ncn3n2)cc1`, the survival is inactive: 89%.
`CC1=C(c2ccc(C)c(C)c2)S(=O)(=O)N(Cc2ccc(C(=O)NCc3ccc(C)cc3)cc2)C1=O`: the survival is inactive: 77%.
For the molecule `Cc1cccc(OCC(=O)NCc2ccc3c(c2)CCN3C(=O)c2ccccc2)c1`, the survival is inactive: 82%.
`COc1ccc(N2CCN(S(=O)(=O)c3c(C)nc4sc(C)cn4c3=O)CC2)cc1`: the survival is inactive: 95%.
The same measure for `CCOc1ccc(NC(=O)c2cc(CN3CCCC3)on2)cc1`: inactive: 128%; for `O=C(Cn1c(=O)oc2cc(S(=O)(=O)NCc3ccccc3)ccc21)NCc1ccc(F)cc1`: inactive: 89%.
`COc1ccc(/C=C/C(=O)Nc2ccc(Cl)c(Cl)c2)cc1OC`: the survival is active: 5%.
The same measure for `O=C(Cn1nc(C(F)(F)F)c2c1CCCC2)Nc1ccc(F)c(Cl)c1`: inactive: 77%.
The same measure for `Cc1c(C(=O)NCc2ccc(F)cc2)sc2nc3n(c(=O)c12)CCC3`: inactive: 82%; for `COc1ccc(-c2ccc(=O)n(CC(=O)Nc3ccc(N(C)C)cc3)n2)cc1`: inactive: 57%; for `CC(=O)Nc1ccc(NC(=O)Nc2sc3nc4n(c(=O)c3c2C)CCC(C)CC4)cc1` (stereo not drawn): inactive: 91%.
As for `Cc1c(NC(=O)c2cc3ccccc3o2)cccc1-c1nc2ccccc2o1`, the survival was inactive: 35%.
In the case of `COc1ccc(OC)c(NC(=O)c2ccc(-c3nc(COc4ccccc4)c(C)o3)cc2)c1`, the survival was inactive: 83%.
With `Cc1cccc(N(C)C(=O)C2CCN(S(=O)(=O)c3cccc4nonc34)CC2)c1`, the survival was inactive: 59%.
The same measure for `Cc1ccc2nc(Nc3ccc(Br)cc3)nc(-c3ccccc3)c2c1`: inactive: 56%; for `CCOc1ccc2oc(=O)cc(CN3CCN(C(=O)c4ccc(Cl)cc4)CC3)c2c1`: inactive: 81%; for `CCCCc1nn2c(=O)cc(COC(=O)CNC(=O)c3ccccc3C)nc2s1`: inactive: 120%.
For `CSc1ccc(C2c3c(oc4ccc(F)cc4c3=O)C(=O)N2c2ccc(C)cn2)cc1` (stereo not drawn), the survival was inactive: 76%.
`COc1ccc(OC)c(NC(=O)Cn2cc(C(=O)c3cccs3)c3ccccc32)c1`: the survival is inactive: 67%.
With `Cc1ccc(C(C)C)c(OCCSc2nc(-c3cccs3)nc3cc(=O)[nH]n23)c1`, the survival is inactive: 75%.
Consider `CCc1cccc(CC)c1NC(=O)Cc1csc(C)n1`, for which the survival is inactive: 83%.
In the case of `O=C(Nc1ccccc1Cl)NC1(C(=O)NCc2cccnc2)CCCCC1`, the survival is inactive: 111%.
The figure for `Cc1cccc(CN2C(=O)c3ccccc3Sc3ccc(C(=O)NCCc4ccccc4)cc32)c1` is inactive: 81%; for `CCC(=O)N1CCc2cc(CNS(=O)(=O)c3ccc(Cl)s3)ccc21` it is inactive: 78%; for `Cc1ccc(NC(=O)/C(C#N)=C/c2cn(CC(=O)NCc3ccco3)c3ccccc23)c(C)c1` it is inactive: 110%.
On to `Cc1cc(Nc2cccc(F)c2)n2nc(-c3ccco3)nc2n1`, for which the survival is inactive: 69%.
Consider `O=C1C=C(c2ccccc2)OC(c2ccccc2)O1` (stereo not drawn), for which the survival is inactive: 114%.
For `NC(=O)C1(N2CCCCC2)CCN(C(=O)Nc2ccc(Cl)c(Cl)c2)CC1`, the survival was inactive: 116%.
`Cc1ccc(C)c(N2CCN(C(=O)C3CCN(Cc4nc(-c5cccc(Cl)c5)oc4C)CC3)CC2)c1`: the survival is active: 3%.
With `COc1ccc(CNC(=O)c2cc3sccc3n2C)cc1`, the survival is inactive: 67%.
As for `COc1cccc(NC(=O)c2sc3nc(C)c(C(=O)Nc4ccc(C)cc4C)c(-c4ccc(Br)cc4)c3c2N)c1`, the survival is inactive: 139%.
The same measure for `COc1ccc(N2CCN(C(=O)c3cc4c(=O)n(Cc5cccs5)ccc4nc3C)CC2)cc1`: inactive: 101%; for `Cc1cc(Cl)ccc1NC(=O)C1CCN(S(=O)(=O)c2ccc3[nH]c(=O)ccc3c2)CC1`: inactive: 81%; for `Cc1cccc(Cn2c(=O)n(CCc3ccccc3)c(=O)c3sc4ccccc4c32)c1`: inactive: 81%.
Consider `Cc1ccc(CCNC(=O)CCSCc2ccccc2F)cc1`, for which the survival is active: -6%.
For the molecule `Cc1ccc(C2c3[nH]c4ccccc4c3CCN2C(=O)c2ccc(N(C)C)cc2)cc1` (stereo not drawn), the survival was inactive: 68%.
On to `CCOC(=O)c1cc(-c2ccccc2)nn1Cc1ccccc1`, for which the survival is active: 2%.
Regarding `O=C(CCOc1ccccc1)N(Cc1cccnc1)c1nc2c(Cl)cccc2s1`, the survival is inactive: 87%.
With `Cc1ccccc1-c1nnn(C/C(N)=N/O)n1`, the survival is inactive: 112%.
Consider `COc1ccc(C)cc1NC(=O)C(CCSC)NS(=O)(=O)c1ccc2c(c1)oc(=O)n2C` (stereo not drawn), for which the survival was inactive: 87%.
As to `COc1cc(C)c(S(=O)(=O)N2CCCC(C)C2)cc1C` (stereo not drawn), the survival is inactive: 103%.
Turning to `CCn1nnc2cc(C(=O)Nc3cccc(C(F)(F)F)c3)ccc21`, the survival is inactive: 80%.
On to `CCOC(=O)N1CCc2c(sc3c2c(=O)n(Cc2ccccc2)c(=O)n3CC(=O)Nc2ccccc2F)C1`, for which the survival is inactive: 86%.
On to `O=S(=O)(Nc1c(F)cccc1F)c1ccc2c(c1)OCCO2`, for which the survival was inactive: 73%.
With `Cc1ccc2oc(C(=O)Nc3c(C(=O)c4ccc(C)c(F)c4)oc4ccccc34)cc(=O)c2c1`, the survival was inactive: 88%.
The same measure for `Cc1cc(NC2C3CC4CC(C3)CC2C4)n2ncnc2n1` (stereo not drawn): inactive: 106%; for `CCOC(=O)c1c(C)[nH]c(CCC(=O)Nc2ccc(N(CC)CC)cc2C)c1C`: inactive: 125%; for `COc1ccc(CN(C(=O)Nc2ccccc2)c2ccccn2)cc1OC`: inactive: 93%.
Consider `CC(C)NC(=O)c1cnc2sc(N3CCCCCC3)nn2c1=O`, for which the survival was inactive: 74%.
The same measure for `Cc1ccc(S(=O)(=O)N(Cc2nc(-c3ccc(Cl)cc3)no2)C2CCCCC2)cc1`: inactive: 84%.
For `O=C(Cn1nnc2ccccc21)Nc1cc(C(F)(F)F)ccc1Cl`, the survival is inactive: 105%.
In the case of `COc1ccccc1N1CCN(CCC(=O)Nc2cccc(F)c2)CC1`, the survival is inactive: 76%.
Regarding `O=C(NCc1cccnc1)c1ccc(S(=O)(=O)N2CCCCC2)cc1`, the survival is inactive: 104%.
For the molecule `CCOCCCNC(=O)N1CCN(S(=O)(=O)c2ccc3c(ccn3C)c2)CC1`, the survival is inactive: 118%.
Take `CN1CC=C2C(C#N)=C(N)C(C#N)(C#N)C(Cc3ccccc3)C2C1` (stereo not drawn): the survival was inactive: 98%.
For `COc1ccc(-c2noc(-c3ccc(N4CCOCC4)c([N+](=O)[O-])c3)n2)cc1OC`, the survival was inactive: 84%.
With `CCOC(=O)c1ccc(NS(=O)(=O)c2cc3c(cc2C)n(C)c(=O)c(=O)n3C)cc1`, the survival is inactive: 73%.
Regarding `Cn1c(=O)c2c(SCC(=O)NCC3CCCO3)nc(-c3ccccc3F)nc2n(C)c1=O` (stereo not drawn), the survival is inactive: 80%.
The figure for `COc1cccc(/C=C(\C#N)c2nc3ccc(C)cc3[nH]2)c1` is inactive: 53%; for `COc1ccc(CNc2nc(-c3ccc(OC)c(OC)c3)cc(C(F)(F)F)n2)cc1` it is inactive: 27%; for `CCCCSCCCNC(=O)CN1C(=O)COc2ccc(S(=O)(=O)N3CCCC3)cc21` it is inactive: 77%.
The figure for `CCOc1ccc(NC(=O)CSc2oc(-c3cccs3)nc2S(=O)(=O)c2ccc(Cl)cc2)cc1` is inactive: 79%; for `O=C(Cn1c(=O)n(-c2ccccc2)c(=O)c2ccc(C(=O)NCc3ccc4c(c3)OCO4)cc21)Nc1ccc(Br)cc1F` it is inactive: 130%; for `O=C(Cn1nc(C(F)F)cc1C1CC1)N1CCCC1` it is inactive: 110%.
Take `COc1ccc(NC(=O)Cn2c(=O)n(-c3ccccc3)c(=O)c3ccc(C(=O)NCc4ccc5c(c4)OCO5)cc32)cc1`: the survival is inactive: 154%.
Turning to `Cc1cc(NC(=O)c2ccc(Cl)c(Cl)c2)ccc1-c1cc2ccccc2oc1=O`, the survival was inactive: 78%.
Consider `Cc1ccc(CNC(=O)CSc2nc3ccsc3c(=O)n2-c2ccc(C(=O)O)cc2)cc1`, for which the survival is inactive: 76%.
In the case of `CCN(CCCNC(=O)c1cc2cc3cc(OC)ccc3nc2s1)c1ccccc1`, the survival was inactive: 83%.
The same measure for `Oc1cccc(Nc2nc(-c3ccccc3)nc3ccccc23)c1`: inactive: 19%.
As for `CC1(C)C(=O)N(CC(=O)Nc2ccc(OC(F)(F)F)cc2)c2ccccc21`, the survival was inactive: 100%.
For `CCCSc1ncc(Cl)c(C(=O)Nc2ccc(CC)cc2)n1`, the survival was inactive: 86%.
On to `O=C(CSC1=Nc2ccccc2C2=NC(CCC(=O)NC3CCCCC3)C(=O)N12)Nc1cccc(Cl)c1` (stereo not drawn), for which the survival is inactive: 84%.
Consider `CCOC(=O)c1c(C)[nH]c(C)c1S(=O)(=O)N(C)CC(=O)Nc1cc(Cl)ccc1OC`, for which the survival is inactive: 128%.
For `CCOC(=O)C1CCC(CN(Cc2c(Cl)cccc2Cl)S(=O)(=O)c2ccc(F)c(C)c2)CC1` (stereo not drawn), the survival is inactive: 70%.
Regarding `Cc1cccc(NC(=O)c2ccc(F)c(S(=O)(=O)N(C)C3CCCCC3)c2)c1`, the survival is inactive: 57%.

The record behind these values is PubChem BioAssay AID463173 (ICCB-Longwood Screening Facility, Harvard Medical School, 2010).
